About 300 (9.4%) of roughly 3,200 compounds showed activity. The list shows a part of the results, in another mix than the full data.
Tested on: A673/TR/shEF
Test: cell viability (LOESS-normalised, relative to median of negative controls) (log2 ratio); higher = more viable cells (less compound effect), active = hit call of the paper (over 3 MAD below the median)
Conditions: treatment time: 72 h
Summary of the method: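 Viability of A673/TR/shEF Ewing sarcoma cells was determined by CellTiter-Glo luminescence. The cells, at 1,500 per well in 384-well plates, were grown with or without doxycycline from 24 h before compound addition to switch on EWS-FLI1 shRNA knockdown, then exposed for three days to library compounds at two or more concentrations or to DMSO controls. Signals were LOESS-corrected plate by plate, normalised to the negative-control median and log2-transformed.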

[1] = 0.25 µM, library screen: screen1, EWS-FLI1 expression: high (no doxycycline)
[2] = 0.25 µM, library screen: screen1, EWS-FLI1 expression: low (doxycycline-induced shRNA knockdown)
[3] = 2.5 µM, library screen: screen1, EWS-FLI1 expression: high (no doxycycline)
[4] = 2.5 µM, library screen: screen1, EWS-FLI1 expression: low (doxycycline-induced shRNA knockdown)
[5] = 0.25 µM, library screen: screen2, EWS-FLI1 expression: high (no doxycycline)
[6] = 0.25 µM, library screen: screen2, EWS-FLI1 expression: low (doxycycline-induced shRNA knockdown)
[7] = 2.5 µM, library screen: screen2, EWS-FLI1 expression: high (no doxycycline)
[8] = 2.5 µM, library screen: screen2, EWS-FLI1 expression: low (doxycycline-induced shRNA knockdown)
[9] = 0.103 µM, library screen: screen3, EWS-FLI1 expression: high (no doxycycline)
[10] = 0.103 µM, library screen: screen3, EWS-FLI1 expression: low (doxycycline-induced shRNA knockdown)
[11] = 0.308 µM, library screen: screen3, EWS-FLI1 expression: high (no doxycycline)
[12] = 0.308 µM, library screen: screen3, EWS-FLI1 expression: low (doxycycline-induced shRNA knockdown)
[13] = 0.926 µM, library screen: screen3, EWS-FLI1 expression: high (no doxycycline)
[14] = 0.926 µM, library screen: screen3, EWS-FLI1 expression: low (doxycycline-induced shRNA knockdown)
[15] = 2.8 µM, library screen: screen3, EWS-FLI1 expression: high (no doxycycline)
[16] = 2.8 µM, library screen: screen3, EWS-FLI1 expression: low (doxycycline-induced shRNA knockdown)
[17] = 8.3 µM, library screen: screen3, EWS-FLI1 expression: high (no doxycycline)
[18] = 8.3 µM, library screen: screen3, EWS-FLI1 expression: low (doxycycline-induced shRNA knockdown)
[19] = 25 µM, library screen: screen3, EWS-FLI1 expression: high (no doxycycline)
[20] = 25 µM, library screen: screen3, EWS-FLI1 expression: low (doxycycline-induced shRNA knockdown)

Measured: cell viability (log2)

COc1cc(O)c2c(=O)cc(C)oc2c1CC=C(C)C
inactive: [1] 0.113 | [2] 0.0803 | [3] 0.117 | [4] 0.16

NC(N)=N[C@@H](CCC(=O)O)C(=O)O
inactive: [5] 0.154 | [6] 0.0756 | [7] 0.175 | [8] 0.0169

CCN(CC)CCNC(=O)c1ccc(N)cc1
inactive: [1] 0.0893 | [2] 0.128 | [5] 0.138 | [6] 0.0499 | [3] 0.121 | [4] 0.267 | [7] 0.308 | [8] 0.0657

CCCCCCOc1ccccc1C(N)=O
inactive: [1] 0.124 | [2] 0.088 | [3] 0.0625 | [4] 0.135

OC[C@H]1O[C@@H](n2cnc3c(N[C@H]4CC5CCC4C5)ncnc32)[C@H](O)[C@@H]1O (stereo partly drawn)
inactive: [5] 0.203 | [6] 0.0126 | [7] 0.145 | [8] 0.0632

CNCC(O)c1ccc(O)c(O)c1 (stereo not drawn)
inactive: [5] 0.184 | [6] 0.0645 | [7] 0.13 | [8] 0.0673

COc1cc2ccc(=O)oc2c(O)c1O
inactive: [1] 0.0227 | [2] -0.0887 | [3] 0.0666 | [4] 0.0769

O=C1c2c(O)cccc2[C@H]([C@@H]2O[C@H](CO)[C@@H](O)[C@H](O)[C@H]2O)c2cc(CO)cc(O)c21
inactive: [1] -0.0436 | [2] 0.0429 | [3] 0.0652 | [4] 0.172

Nc1ccc(S(=O)(=O)Nc2nccs2)cc1
inactive: [1] 0.085 | [2] 0.101 | [3] 0.113 | [4] 0.106

Cc1ccc(-c2cc(C(F)(F)F)nn2-c2ccc(S(N)(=O)=O)cc2)cc1
inactive: [9] 0.112 | [10] 0.13 | [1] 0.171 | [2] 0.082 | [11] 0.113 | [12] 0.0712 | [13] 0.0884 | [14] 0.0716 | [3] 0.116 | [4] -0.00575 | [15] 0.124 | [16] 0.00169 | [17] 0.103 | [18] 0.0767 | [19] 0.103 | [20] 0.0672

COC(=O)C[C@H]1C(C)(C)C2(Cl)O[C@@]34CC2C(=O)[C@]1(C)C3CC[C@]1(C)C4=CC(=O)O[C@H]1c1ccoc1 (stereo partly drawn)
inactive: [1] 0.0526 | [2] 0.0775 | [3] 0.126 | [4] 0.163

CCOC(=O)C1=C(C)NC(=S)NC1c1cccc(O)c1 (stereo not drawn)
inactive: [5] 0.183 | [6] 0.134 | [7] 0.103 | [8] 0.054

CC[C@H]1OC(=O)[C@H](C)[C@@H](O[C@H]2C[C@@](C)(OC)[C@@H](O)[C@H](C)O2)[C@H](C)[C@@H](O[C@@H]2O[C@H](C)C[C@H](N(C)C)[C@H]2O)[C@](C)(O)C[C@@H](C)CN(C)[C@H](C)[C@@H](O)[C@]1(C)O
inactive: [1] 0.0317 | [2] 0.0658 | [3] 0.122 | [4] 0.0894

CC1CCC2(CO)CCC3(C)C(=CCC4C5(C)CCC(O)C(C)(C)C5CCC43C)C2C1C (stereo not drawn)
inactive: [1] 0.00774 | [2] -0.0265 | [3] 0.0749 | [4] 0.092

CCOC(=O)C(Cc1ccc(O)cc1)NC(C)=O (stereo not drawn)
inactive: [1] 0.139 | [2] -0.0191 | [3] 0.0818 | [4] -0.000428

COc1ccc2c(c1)c(CC(=O)O)c(C)n2Cc1ccc(F)cc1
inactive: [5] 0.088 | [6] 0.0679 | [7] 0.0932 | [8] 0.0469

O=C(/C=C/c1cccc(S(=O)(=O)Nc2ccccc2)c1)NO
active: [15] -0.399 | [16] -0.113 | [17] -1.47 | [18] -0.52 | [19] -4.33 | [20] -2.11

NC[C@H]1O[C@H](O[C@H]2[C@H](O)[C@@H](O[C@H]3O[C@H](CO)[C@@H](O)[C@H](N)[C@H]3O)[C@H](N)C[C@@H]2N)[C@H](N)C[C@@H]1O
inactive: 0.025 µM, library screen: screen2, EWS-FLI1 expression: high (no doxycycline) -0.0103 | 0.025 µM, library screen: screen2, EWS-FLI1 expression: low (doxycycline-induced shRNA knockdown) 0.0337 | [1] 0.0322 | [2] 0.0135 | [5] 0.116 | [6] -0.00719 | [3] 0.0595 | [4] 0.0531 | [7] 0.136 | [8] 0.0663 | 25 µM, library screen: screen2, EWS-FLI1 expression: high (no doxycycline) 0.174 | 25 µM, library screen: screen2, EWS-FLI1 expression: low (doxycycline-induced shRNA knockdown) 0.0421

CNC(=O)c1c(F)cccc1Nc1nc(Nc2cc3c(cc2OC)CCN3C(=O)CN(C)C)nc2[nH]ccc12
active: [11] -0.215 | [13] -0.468 | [15] -0.729 | [16] -0.119 | [17] -0.785 | [18] -0.103 | [19] -1.04 | [20] -0.185
inactive: [9] -0.00474 | [10] 0.0229 | [12] -0.0133 | [14] -0.047

COc1ccc2c(c1)c(CC(=O)O)c(C)n2C(=O)c1ccccc1
inactive: [5] 0.183 | [6] 0.175 | [7] 0.131 | [8] 0.14

C[C@@H]1CCC2[C@@H](C)[C@@H](O)O[C@@H]3OC4(C)CC[C@@H]1[C@@]23OO4 (stereo partly drawn)
inactive: [1] 0.104 | [2] 0.00583 | [3] 0.029 | [4] -0.122

COCCOC(=O)C1=C(C)NC2=C(C(=O)CCC2)C1c1ccc(C)s1 (stereo not drawn)
inactive: [1] -0.0698 | [2] 0.0631 | [3] 0.0308 | [4] 0.207

COc1cc(OC)c2ccc(=O)oc2c1
inactive: [1] 0.111 | [2] 0.0194 | [3] 0.0761 | [4] -0.0247

CNC(=O)c1ccc(N2C(=S)N(c3ccc(C#N)c(C(F)(F)F)c3)C(=O)C2(C)C)cc1F
inactive: [9] -0.0464 | [10] 0.0923 | [11] 0.0275 | [12] 0.00942 | [13] 0.025 | [14] 0.045 | [15] 0.00719 | [16] 0.00621 | [17] -0.0193 | [18] 0.00651 | [19] 0.0274 | [20] -0.0592

O=C(CCBr)N1CCN(C(=O)CCBr)CC1
inactive: [1] 0.186 | [2] 0.0266 | [3] 0.134 | [4] 0.0433

CCCCC1C(=O)N(c2ccccc2)N(c2ccc(O)cc2)C1=O (stereo not drawn)
inactive: [1] 0.139 | [2] 0.0945 | [4] 0.2
active: [3] -0.129

COc1cc2nc(N3CCN(C(=O)C4COc5ccccc5O4)CC3)nc(N)c2cc1OC (stereo not drawn)
inactive: [9] 0.124 | [10] 0.115 | [5] 0.233 | [6] 0.0757 | [11] 0.0704 | [12] 0.0817 | [13] 0.118 | [14] 0.0497 | [7] 0.0767 | [8] 0.094 | [15] 0.0683 | [16] 0.00171 | [17] 0.111 | [18] 0.0618 | [19] 0.0496 | [20] 0.0586

CC(=O)Nc1ccc(OC(=O)c2ccccc2O)cc1
inactive: [1] 0.116 | [2] 0.0261 | [3] 0.151 | [4] 0.112

COC(=O)C[C@H]1C(C)(C)C(OC)=C2CC3=C4CC(=O)O[C@@H](c5ccoc5)[C@]4(C)CCC3[C@@]1(C)C2=O (stereo partly drawn)
inactive: [1] 0.0817 | [2] 0.1 | [3] 0.101 | [4] 0.109

COC(=O)C[C@H]1C2(C)CC34OC5(C)O[C@@]6([C@H](OC(C)=O)C(OC(C)=O)[C@]7(C)C(/C(=C(/O)C(C)C)C(=O)O[C@H]7c7ccoc7)[C@@]6(O5)[C@H](OC(C)=O)[C@@]3(O)C2OC(=O)C(C)C)[C@]14C (stereo partly drawn)
inactive: [1] -0.0155 | [2] 0.0666 | [3] 0.0766 | [4] 0.119

Cc1cc(C(C)(C)C)cc(C)c1CC1=NCCN1
inactive: [1] 0.13 | [2] 0.118 | [5] 0.239 | [6] 0.0958 | [3] 0.164 | [4] 0.17 | [7] 0.231 | [8] 0.0544

CCN(CCCCOC(=O)c1ccc(OC)c(OC)c1)C(C)Cc1ccc(OC)cc1 (stereo not drawn)
inactive: [1] 0.13 | [2] 0.128 | [3] 0.198 | [4] 0.205

O=c1[nH]ccc2c(O)cccc12
inactive: [5] 0.128 | [6] 0.0644 | [7] 0.117 | [8] 0.0876

O=P(O)(O)C(O)(Cn1ccnc1)P(=O)(O)O
inactive: [9] 0.0136 | [10] 0.138 | [11] 0.165 | [12] 0.116 | [13] 0.193 | [14] 0.0827 | [15] 0.164 | [16] 0.174 | [17] 0.23 | [18] 0.0896 | [19] 0.262 | [20] 0.113

O=C(c1cc(O)c(O)c([N+](=O)[O-])c1)c1ccccc1F
inactive: [5] 0.0844 | [6] 0.0601 | [7] 0.153 | [8] 0.129

CC(=O)O[C@@H]1CC(=O)[C@@]2(C)C(CC(=O)[C@]3(C)C2CC[C@@]2(C)[C@H](c4ccoc4)OC(=O)C4OC423)C1(C)C (stereo partly drawn)
inactive: [1] 0.122 | [2] 0.0336 | [3] 0.0891 | [4] 0.0361

CCN(CC)CCOCCOC(=O)C1(c2ccccc2)CCCC1
inactive: [1] 0.117 | [2] 0.021 | [5] 0.157 | [6] 0.127 | [3] 0.0781 | [4] 0.0809 | [7] 0.0944 | [8] 0.064

Source: the supplement of paper PMC6089552
